± gives the standard deviation. The entries are a selection whose mix differs from that of the whole data set. Some results are limits rather than exact numbers.

The test system of this assay is MIWI (PIWIL1) piRISC loaded with L1MC piRNA (30 nt). Put plainly: pre-steady-state target cleavage rate (min^-1); MIWI and MILI are mouse PIWI proteins and EfPiwi is from a freshwater sponge; tags in brackets are library labels; higher = faster piRNA-guided slicing of the target. The conditions noted are these: guide: L1MC piRNA 5'p-UAACUAAAUACUAUGCAAGCUGUAGGUCCU; auxiliary factor: 500 nM mouse GTSF1. Summed up: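 The pre-steady-state cleavage rate came from a burst-and-steady-state fit to pooled data from three Cleave-'n-Seq trials, in which uncleaved targets were sequenced and normalised to depth and to weakly complementary targets. Each reaction held 0.1 nM transcribed, DNA-blocked target RNA library and 1 nM active affinity-purified piRISC carrying one synthetic guide, with or without 500 nM GTSF1 partner protein, in HEPES–potassium acetate buffer at 33 °C for 0–8 or 0–960 min. k3 was capped at 0.0001 min^-1.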
Take UCCUGGAUGUGCUUGCAUUGAAUUUAGUUA: the “pre-steady-state target cleavage rate” value amounted to 0.0036 ± 0.0033.
The value for AGGACCUACAGCUUGCAUAGAUAUUAGAAA was 0.158 ± 0.057; that for UGGACCUACAGCUUGCAAUCUAUUUAGUAA was 0.0744 ± 0.012; that for UCCUGGUACAGCUUGCAUAGAAUUUUCAAA was 0.0135 ± 0.0085.
For UCGUGCUACAGCUUGCAUAGUAUUUUCAAA the value was 0.255 ± 0.038; for AGGACCUACAGCUUGCAUAGGUAUUUAGUUA, 0.178 ± 0.065; for UCCUGGAUCUCCUUGCAUAGUAUUUACAAA, 0.111 ± 0.021.
For UCCUGGAUGUGGAUGCAUAGUAUUUAGUUA the value was 0.00806 ± 0.0026.
UCCUGCUACAGCUUGCAUAGAUAUUAGUUA: the “pre-steady-state target cleavage rate” value came to 0.0496 ± 0.017.
The value for UCCUGGAUGAGCUUGCAAGUAUUUAGUUA was 0.00592 ± 0.0034; that for UCCUGGAACAGCUUGCAUAGUAAAAAGUAA was 0.0753 ± 0.019.
For UCCUGGUACAGCUUCCAAAGUAUUUAGUUA the value was 0.312 ± 0.05.
Turning to UCCUGGAUGUCGAUGCACAGUAUUUAGUUA, the “pre-steady-state target cleavage rate” value came to 0.016 ± 0.0041.
Consider UCCUGGAUGAGCUUGCAUAGUCAUUUAGUUA, for which the “pre-steady-state target cleavage rate” value turned out to be 0.00516 ± 0.004.
For UCCUGGUUCAGCUUCCAUAGUAUUUAGUUA the value was 0.0207 ± 0.0091; for UCCUGCUACAGCUUGGUUAGUAUUUACAAA, 0.0104 ± 0.0047; for UCCUGGAUGUCCUUGCAUAGUAUAUACUUA, 0.00478 ± 0.0047.
For UCCUGGAACAGGUUGCAUAGUAUUUACAAA the value was 0.15 ± 0.022; for AGCUGCUACAGCUUGCAUAGUAUUUACAAA, 0.268 ± 0.048; for UCCUGGAUGUCGAUGCAUAGUAUCUAGUUA, 0.00955 ± 0.0041.
On to UCCUGGAUGUCCAAGCAUAGUAUUUAGUUA, for which the “pre-steady-state target cleavage rate” value is 0.011 ± 0.005.
The value for UCCUCCUACAGCUUGGUUAGUAUUUACAAA was 0.0571 ± 0.013; that for UCCACCUACAGCUUGCCAUAGUAUUUAGUUA was 0.243 ± 0.035; that for AGGACCUACAGCUACCAUAGUAUUUAGUAA was 0.45 ± 0.053.
The value for UCCUGGAUGUCGAACGAUAGUAUUUAGUUUA was below 0.0001; that for UCCUGCUACAGGAUGCAUAGUAUUUAGAAA was 0.158 ± 0.038.
For the sequence UGGACCUACAGCUACGAUAGUAUUUAGUAA, the “pre-steady-state target cleavage rate” value amounted to 0.0193 ± 0.0048.
For UCCUGCUACAGCUUGCAUACUAUUUUCAAA the value was 0.118 ± 0.026; for UCCUGGAUGUCGAACCAUAGUAUUUAGGUA, below 0.0001; for UGGUGGUACAGCUUGCAUAGUAUUUUCAAA, 0.145 ± 0.023.
The value for UCCUGGUACAGGUUGCAUAGUAUUUAGAAA was 0.141 ± 0.025; that for UCGACCUACAGCUUCCAUAGUAUAUAGUUA was 0.046 ± 0.016.
The value for UCCUCCUACAGCUUGCAUAGUAUUAGUUA was 0.181 ± 0.034.
With UCCUGGAACAGGUUGCAUAGUAUUUUCAAA, the “pre-steady-state target cleavage rate” value was 0.123 ± 0.019.
As for UCCUCCUACACCUUCCAUAGUAUUUAGUUA, the “pre-steady-state target cleavage rate” value stood at 0.0661 ± 0.024.
As for UCCUGGUACUCCUUGCAUAGUAUUUAGAAA, the “pre-steady-state target cleavage rate” value was 0.018 ± 0.0073.
For the sequence UCCUGGAUGAGGUUGCAUAGUAUAUAGUUA, the “pre-steady-state target cleavage rate” value was 0.0442 ± 0.01.
For UCCUGGUACAGCUUGCAUAGUUAAUAGUAA the value was 0.0718 ± 0.024; for UCGACCUACAGCAACCAUAGUAUUUAGUUA, 0.216 ± 0.019.
